The campaign covered roughly 310,000 compounds. About 2,200 (0.71%) showed an effect of 50% or more. The effect is printed as a negative number. Some of the results follow.

The target in this assay is human ether-à-go-go-related gene (hERG) potassium channel (human, UniProt Q12809). The experiment in a line: primary screen, population patch clamp on CHO cells stably expressing hERG.
Chain of human ether-à-go-go-related gene (hERG) potassium channel (Q12809 whole entry, looked up): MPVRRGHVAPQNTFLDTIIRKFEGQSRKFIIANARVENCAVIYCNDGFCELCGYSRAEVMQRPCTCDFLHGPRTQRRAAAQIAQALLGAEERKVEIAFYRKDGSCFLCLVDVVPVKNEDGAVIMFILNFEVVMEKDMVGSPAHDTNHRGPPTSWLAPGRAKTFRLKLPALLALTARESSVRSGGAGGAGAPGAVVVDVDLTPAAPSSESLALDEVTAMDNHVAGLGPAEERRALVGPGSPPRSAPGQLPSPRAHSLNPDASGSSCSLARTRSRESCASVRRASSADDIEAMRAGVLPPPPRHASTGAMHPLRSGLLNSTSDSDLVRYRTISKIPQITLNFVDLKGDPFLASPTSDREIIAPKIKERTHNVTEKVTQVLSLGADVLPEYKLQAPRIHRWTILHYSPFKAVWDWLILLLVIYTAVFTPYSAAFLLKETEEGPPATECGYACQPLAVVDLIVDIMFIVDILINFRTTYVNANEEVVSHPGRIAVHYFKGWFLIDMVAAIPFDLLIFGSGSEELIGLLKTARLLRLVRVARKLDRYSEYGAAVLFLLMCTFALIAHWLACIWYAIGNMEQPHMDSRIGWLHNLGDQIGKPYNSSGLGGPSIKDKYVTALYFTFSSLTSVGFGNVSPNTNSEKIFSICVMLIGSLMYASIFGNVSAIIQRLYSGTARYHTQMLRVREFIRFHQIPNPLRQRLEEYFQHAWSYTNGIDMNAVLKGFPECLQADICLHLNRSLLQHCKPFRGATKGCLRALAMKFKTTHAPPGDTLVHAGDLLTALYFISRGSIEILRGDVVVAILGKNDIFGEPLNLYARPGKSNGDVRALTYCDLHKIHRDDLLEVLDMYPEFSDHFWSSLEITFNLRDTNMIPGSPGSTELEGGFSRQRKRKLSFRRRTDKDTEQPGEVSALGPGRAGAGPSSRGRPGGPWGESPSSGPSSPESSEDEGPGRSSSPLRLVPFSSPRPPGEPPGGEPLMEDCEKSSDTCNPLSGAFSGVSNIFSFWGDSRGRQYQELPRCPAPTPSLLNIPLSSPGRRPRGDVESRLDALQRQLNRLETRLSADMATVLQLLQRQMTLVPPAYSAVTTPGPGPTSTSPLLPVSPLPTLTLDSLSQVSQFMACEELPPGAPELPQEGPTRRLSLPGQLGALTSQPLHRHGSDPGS
As for `CC1CN(c2cc(=O)n(Cc3ccc(F)cc3)c(=O)[nH]2)CC(C)O1` (stereo not shown), the “hERG current change (%, negative = inhibition) at 1uM” value is on record as 8.05%.
In the case of `CC(=O)Nc1ccc(Cl)cc1C1COC(=O)C1=N` (stereo not shown) it was 8.41%; in that of `Cc1cc(=O)[nH]c(SCc2nnnn2-c2ccc(Cl)cc2)n1`, 6.44%; in that of `CC(Nc1nc(-c2ccccc2F)nc2ccccc12)c1ccccc1` (stereo not shown), 8.7%.
Consider `CCOC(=O)c1cccc(NC(=O)CN(C)S(=O)(=O)c2cnc[nH]2)c1`, for which the “hERG current change (%, negative = inhibition) at 1uM” value worked out at 17.3%.
The same measure for `COc1ccc(-c2noc(CN(C)S(=O)(=O)c3ccc(C)cc3)n2)cc1`: -11%.
Consider `C[C@H](NC(=O)c1ccccc1Cl)C(=O)OCC(=O)N1CCN(c2ccccc2)CC1`, for which the “hERG current change (%, negative = inhibition) at 1uM” value was found to be 4.48%.
As to `Cc1nnc(NC(=O)CSc2ccccc2N)s1`, the “hERG current change (%, negative = inhibition) at 1uM” value stood at 13.3%.
Consider `Cc1coc(C)c1C(=O)CC1(O)C(=O)N(Cc2ccccc2)c2ccccc21` (stereo not shown), for which the “hERG current change (%, negative = inhibition) at 1uM” value worked out at 8.31%.
In the case of `COc1ccccc1C(=O)NCc1ccc(-c2nc3ccccc3s2)cc1`, the “hERG current change (%, negative = inhibition) at 1uM” value is reported as -9.11%.
Regarding `O=C(COC(=O)CNC(=O)c1ccc(Cl)c([N+](=O)[O-])c1)NCC1CCCO1` (stereo not shown), the “hERG current change (%, negative = inhibition) at 1uM” value is listed as 3.8%.
As for `CC(=O)c1ccc(NS(=O)(=O)c2cc3c(cc2C)N(C)CCO3)cc1`, the “hERG current change (%, negative = inhibition) at 1uM” value was 11.5%.
As for `CN(C)N=Nc1nc2c([nH]1)c(=O)n(C)c(=O)n2C`, the “hERG current change (%, negative = inhibition) at 1uM” value is reported as 6.51%.
In the case of `Cc1ccc(S(=O)(=O)NCC(=O)NCC(=O)OCC(=O)N2CC(=O)Nc3ccccc32)cc1C` it was 4.07%.
The same measure for `CCOc1ccc(NC(=O)CN(C)C(=O)CN2C(=O)NC3(CCCC3)C2=O)cc1OCC`: 8.23%.
Take `Cc1ccccc1N1CC(C(=O)Nc2nnc(SCCC3OCCO3)s2)CC1=O` (stereo not shown): the “hERG current change (%, negative = inhibition) at 1uM” value came to 16.7%.
In the case of `COc1ccc(S(=O)(=O)Nc2cc(C)on2)cc1` it was 13%; in that of `CSc1ccc(CNC(=O)c2c(C)noc2C)s1`, 13.9%.
Take `Cc1cccc2cncc(OCc3nnc(SC(F)F)n3C)c12`: the “hERG current change (%, negative = inhibition) at 1uM” value was 3.98%.
The same measure for `CC1CC2OC(=O)C3(C)CCCC(C)(C23)C1(O)CCc1ccoc1` (stereo not shown): -3.14%; for `NS(=O)(=O)c1ccc(NC2=CC(c3ccc([N+](=O)[O-])cc3)N(c3ccc(S(N)(=O)=O)cc3)C2=O)cc1` (stereo not shown): 3.9%.
In the case of `Cc1nn(C)c(C)c1N1C(=O)c2cccc3c(Br)ccc(c23)C1=O` it was 9.1%.
In the case of `CCN(CC(=O)NCc1cccs1)C(=O)c1ccc(-c2cccc(C(F)(F)F)c2)o1`, the “hERG current change (%, negative = inhibition) at 1uM” value is -57.4%.
For `O=C(O)CCCCNS(=O)(=O)c1ccc(Cl)c(C(F)(F)F)c1`, the “hERG current change (%, negative = inhibition) at 1uM” value came to 16.2%.
In the case of `CN(C)[C@@H]1C(=O)C(C(N)=O)=C(O)[C@@]2(O)C(=O)C3=C(O)c4c(O)cccc4[C@@](C)(O)[C@H]3[C@H](O)[C@@H]12.[Ca]` it was 3.53%; in that of `CCCNS(=O)(=O)c1ccc2c(c1)CCCN2C(C)=O`, 5.08%.
As for `Cc1ccc(OCC(=O)NNC(=O)c2ccc3c(=O)n4c(nc3c2)CCC4)cc1`, the “hERG current change (%, negative = inhibition) at 1uM” value is given as 13.8%.
In the case of `Brc1ccc(-c2nnc(-c3cccnc3)o2)cc1` it was 3.32%; in that of `CSc1nc(O)c(C(c2cccc([N+](=O)[O-])c2)c2c(O)nc(SC)[nH]c2=O)c(=O)[nH]1`, 11.8%; in that of `Cc1ccnc2nc(C(=O)N3CCN(S(=O)(=O)c4ccccc4)CC3)nn12`, 13.4%.
On to `CCOC(=O)N1CCc2c(sc3c2C(=O)NC(c2ccccc2)N3)C1` (stereo not shown), for which the “hERG current change (%, negative = inhibition) at 1uM” value stood at 13.6%.
On to `COc1ccc(-c2nc(C#N)c(N3CCC(C(N)=O)CC3)o2)cc1OC`, for which the “hERG current change (%, negative = inhibition) at 1uM” value is -3.83%.
In the case of `CN1CC2=Cc3ccccc3OC23Oc2ccccc2C=C3C1` it was -3.81%; in that of `O=C1CC(C(=O)Nc2ccccc2)N=C(N2CCCCC2)N1` (stereo not shown), 1.61%.
The same measure for `COc1ccc(N=Nc2c(C)n[nH]c2C)cc1`: 10.2%.
Regarding `C=CCSc1nc2c(sc3nc(C)cc(C)c32)c(=O)[nH]1`, the “hERG current change (%, negative = inhibition) at 1uM” value came out at 19.6%.
On to `O=C(c1cc(S(=O)(=O)N2CCOCC2)ccc1F)N(CCc1ccccc1)Cc1ccccc1`, for which the “hERG current change (%, negative = inhibition) at 1uM” value was 5.98%.
Turning to `CCC(C)(C)C(=O)Nc1cc([N+](=O)[O-])ccc1Cl`, the “hERG current change (%, negative = inhibition) at 1uM” value is -4.14%.
In the case of `CC1CCN(C(=O)COC(=O)c2ccc3c(c2)OCO3)CC1` it was 8.66%; in that of `Cc1cccc(OCc2occc2C(=O)Nc2cccc(-n3cnnn3)c2)c1`, 14%.
In the case of `Cc1ccc(CN(C(=O)CNC(=O)c2cccs2)C(C(=O)NCC2CCCO2)c2ccccc2)cc1` (stereo not shown) it was 11.2%.
Consider `CCOc1ccccc1CNC(=O)Cn1ccc2cc(S(=O)(=O)N3CCCCCC3)ccc21`, for which the “hERG current change (%, negative = inhibition) at 1uM” value worked out at 13.2%.
In the case of `O=C1S/C(=C\c2ccc(O)c([N+](=O)[O-])c2)C(=O)N1c1ccccc1Cl`, the “hERG current change (%, negative = inhibition) at 1uM” value is on record as -13.4%.
In the case of `COc1ccc2oc(=Nc3ccc(C(=O)O)cc3)c(C(=O)NCc3ccco3)cc2c1` it was 3.49%; in that of `CCCOc1cccc(C(=O)Nc2ccc3c(c2)OCCO3)c1`, 11%; in that of `COc1ccc(S(=O)(=O)N2CCc3ccccc32)cc1C(=O)OCc1nnc(-c2ccccc2)o1`, 12.8%.
The same measure for `CC1(C)OC(=O)C(=CNc2ccc(F)cc2)C(=O)O1`: 3.35%; for `CCCCCCc1c(O)nc(SCC(=O)O)[nH]c1=O`: 8.83%.
The same measure for `Cc1ccc(S(=O)(=O)NC(=O)NCCCN2CCOCC2)cc1`: 9.45%; for `CSc1nnc(-c2ccc(S(=O)(=O)N3CCOCC3)cc2)n1C`: -5.27%.
On to `O=[n+]1c2c(n([O-])c3cc(F)c(N4CCCC4)cc31)CCCC2`, for which the “hERG current change (%, negative = inhibition) at 1uM” value came to 10.7%.
In the case of `CCCn1c(=O)c(C(=O)NC(C)c2ccccc2)c(O)c2ccccc21` (stereo not shown) it was 13.5%; in that of `Cc1c(NC(=O)c2cnn3c2NC(c2ccccc2)CC3C(F)(F)F)c(=O)n(-c2ccccc2)n1C` (stereo not shown), -6.34%.
In the case of `O=C(Nc1ccc(Cl)cc1Cl)c1cc2ccccc2o1` it was 7%; in that of `CN(C(=O)c1ccc(NC(=O)Cc2ccc(NC(=O)C3CCN(C(=O)C4CC4)CC3)cc2)cc1)C1CC1`, 15%.

Source of the values: paper PMC4336329 (PLoS ONE, 2015).
